Read counts are not given, so values of variants with three or more changes are uncertain.
B1: CPEB3 Ribozyme (parent)
chain: UAACAGGGGGCCACAGCAGAAGCGUUCACGUCGCAGCCCCUGUCAGAUUCUGGUGAAUCUGCGAAUUCUGCUGUAUAUCUC

Variants of: B1
Assay: self-cleavage, relative activity (ratio to wild type); higher = more cleavage; in vitro, sequencing
Summary of the method: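 CPEB3 self-cleaving ribozyme mutant libraries were made by rounds of error-prone PCR, barcoded, and transcribed in vitro with T7 RNA polymerase for 5 hours at 37°C. Cleavage occurred during transcription and a 15 min DNase I step before EDTA stop. RNAs were reverse transcribed with template switching and Illumina-sequenced, with DNA sequencing mapping barcodes to variants. Relative activity is the variant's cleaved/total read fraction divided by wild type's (minimum 5 reads), averaged across three batches.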

Variant | self-cleavage
UAACAGGGGGCCACAGCAGGAGCGUACACGUCGCAGCCCCUGUCAGAUUCUGGUGGAUCUGCGAAUUCUGCUGUAUAUCUC [A20G U26A A56G] | 0.36
UAACAGGGGGCCACAGCAGGAGCGUUCACGGCGCAGCCCCUGUCCGAUUCUGGUGGAUCUGCGAAUCCUGCUGUAUAUCUC [A20G U31G A45C A56G U67C] | 0.05
UAACAGGGGGCCACAGCAGGAGCGUUCACGCAGCAGCCCCUGUCAGAUUCUGGUGAAUCUGCGAAUUCUGCUGUAUACCUC [A20G U31C C32A U78C] | 0.17
UAACAGGGGGCCACAGCAGGAGCGCUCACGUCGCAGCCCCUGUCAGAUUCUGGUGAAGCUGCGAAUUCUGCUGUAUAUCUC [A20G U25C U58G] | 0.4
UAACAGGGGGCCACAGCAGGAGCGUCCACGUCGCAGCCCCUGUCAGAUUCUGGCGAAUCUGCUAACUCUGCUGUAUAUCUC [A20G U26C U54C G63U U66C] | 0.08
UAACAGGGGGCCACAGCAGGAGCGUCCACGUCGCAGCCCCAGUCAGAUUCCGGUGAAUCUGCGAAUUCAGCUGUAUACCUC [A20G U26C U41A U51C U69A U78C] | 0.2
UAACAGGGGGCCACAGCAGGAGCGUCCACGUCGCAGCCCCUGUCAGAUUCUGGUGAUUCUGCGAAUUCUGAUGUAUAUCUC [A20G U26C A57U C71A] | 0.16
UAACAGGGGGCCACAGCAGGAGCGUUCACGGCGCAGCCCCUGUCUGAUUCUAGUGAAUCUGCGAAUUCUGCUGUAUAUCUC [A20G U31G A45U G52A] | 0.11
UAACAGGGGGCCACAGCAGGAGCGUCCACGUCGCAGCCCCUGACAGGUUCUGGCGAAUCUGCGAAUUCAGCUGUAUAUCUC [A20G U26C U43A A47G U54C U69A] | 0.27
UAACAGGGGGCCACAGCAGGAGCGUUCACGCCGCAGCCCCUGUCGGAUUCUGGUGAAUCUGCGAACUCUGCUGUAUAUCUC [A20G U31C A45G U66C] | 0.34
UAACAGGGGGCCACAGCAGGAGCGUCCACGCCGCAGCCCCUGUCAGAUUCUGGUGAAUCAGCGAAUUCUGCUGUAUGUCUC [A20G U26C U31C U60A A77G] | 0.05
UAACAGGGGGCCACAGCAGGAGCGUCCACGUCGCAGCCCCUGUCAGAUUCUGGUGAAUCUGCGAAUCCUGCUGUAUAUCUC [A20G U26C U67C] | 0.29
UAACAGGGGGCCACAGCAGGAGCGUCCACGUCGCAGCCCCUGUCAGAUACUGGUGAAUCUGCGGAUUCUGCUGUAAAUCUC [A20G U26C U49A A64G U76A] | 0.06
UAACAGGGGGCCACAGCAGGAGCGUUCACGCCGCAGCCCCUGCCAGAUUCUGGUGAAUCUGCGAAUUCUGCUGUAUAUCUC [A20G U31C U43C] | 0.38
UAACAGGGGGCCACAGCAGGAGCGUACACGACGCAGCCCCUGUCAGAUUCUGGUGAAUCUGCGAAUCCUGCUGUAUACCUC [A20G U26A U31A U67C U78C] | 0.22
UAACAGGGGGCCACAGCAGGAGCGUGCACGUCGCAGCCCCUGUCGGAUUCUGGUGAAUCUGCGAAUUCAGCUGUAUACCUC [A20G U26G A45G U69A U78C] | 0.04
UAACAGGGGGCCACAGCAGGAGCGUACACGUCGCAUCCCCUGUCAGAUUCUGGUGAAUCUGCGAAUUCUGCUGUAUAUCUC [A20G U26A G36U] | 0.07

Variant | self-cleavage
UAACAGGGGGCCACAGCAGGAGCGUUCACGUCGCAGCCCCAGUCAGAUCCCGGUGAAUCUGCGAAUUCCGCUGUAUAUCUC [A20G U41A U49C U51C U69C] | 0.03
UAACAGGGGGCCACAGCAGGAGCGUCCAUGACGCAGCCCCUGUCAGAUUCUGGUGAAUCUGCGAAUUCUGCUGUAUAUCUC [A20G U26C C29U U31A] | 0.28
UAACAGGGGGCCACAGCAGGAGCGUCCACGUCGCAGCCCCUGUCAGAUUCUGGUGAAUCUGCGAAUUCUGCUGUACAUCUC [A20G U26C U76C] | 0.41
UAACAGGGGGCCACAGCAGGAGCGUCCACGUCGCAGCCCCUGUCAGAUUCUGGUGAAUCUGCGAAUUCUGCUGUAAAUCUC [A20G U26C U76A] | 0.32
UAACAGGGGGCCACAGCAGGAGCGUUCACGCCGCAGCCCCUGUCGGAUUAUGGUGAAUCUGCGAAUUCUGCUGUAUACCUC [A20G U31C A45G C50A U78C] | 0.31
UAACAGGGGGCCACAGCAGGAGCGUCCACGUCGCAGCCCCUGUCAGAUUCUGGUGAAUCUGCGAAUUCUGCUGUAUACCUC [A20G U26C U78C] | 0.35
UAACAGGGGGCCACAGCAGGAGCGUUCACGCCGCAGCCCCUGUCUGAUUCUGGAGGAUCUGCGAAUUCUGCUGUUUAUCGC [A20G U31C A45U U54A A56G A75U U80G] | 0.02
UAACAGGGGGCCACAGCAGGAGCGUUCACGACGCAGCCCCUGUCAGAUUUUGGUGAAUCUGCGAAUUCUGCUGUAUAUCUC [A20G U31A C50U] | 0.42
UAACAGGGGGCCACAGCAGGAGCGUACACGUCGCAGCCCCUGUCAGAUUCUGGUGAAUCUGCGAAUUCUGCUGGAUAUCUC [A20G U26A U74G] | 1.2
UAACAGGGGGCCACAGCAGGAGCGUCCACGUCACAGCCCCUGUCAGAUUCUGGUGAAUCUGCGAAUUCUGCUGUAUAUCUC [A20G U26C G33A] | 0.07
UAACAGGGGGCCACAGCAGGAGCGUCCACGUCGCGGCCCCUGACAGAUUCUGGUGAACCUGCGAAUUCUGCUGUAUAUCUC [A20G U26C A35G U43A U58C] | 0.17
UAACAGGGGGCCACAGCAGGAGCGUUCACGUCGCAGCCCCAGUCAGAUUCUGGUGGAUCCGCGAAUUCUGCUGUAUAUCUC [A20G U41A A56G U60C] | 0.09
UAACAGGGGGCCACAGCAGGAGCGCUCACGUCGCAGCCCCUGUCAGAUUCUGGUGAAUCUGCGAACUCUGCUGUAUAUCUC [A20G U25C U66C] | 0.06
UAACAGGGGGCCACAGCAGGAGCGUUCACGCCGCAGCCCCUGUCAGACUCUGGUGAAUCUGCGGAUUCUGCUGUAUAUCUC [A20G U31C U48C A64G] | 0.45
UAACAGGGGGCCACAGCAGGAGCGUCCACAUCGCAGCCCCUGUCAGAUUCUGGUGAAUCUACGAAUUCUGCUGUAUAUCUC [A20G U26C G30A G61A] | 0.2
UAACAGGGGGCCACAGCAGGAGCGUCCACGACGCAGCCCCUGUCAGAUUCUGGUGAAUCUGCGAAUUCUGCUGUAUACCUC [A20G U26C U31A U78C] | 0.14
UAACAGGGGGCCACAGCAGGAGCGUACACGUCGCAGCCCCUGUCAGAUACUGGUGAAUCCGCGAAUUCUGCUGUAUAUCUC [A20G U26A U49A U60C] | 0.24

From the RNAGym collection of RNA variant scans (doi:10.1093/nar/gkz1192)
